The source gives no read counts; variants with many changes may rest on few reads.
B1: LINE1-mini (parent)
chain: GGCAGAGCUCAACACAGCGUGGCAAAGUGGCUGUGGCUAGACUGCC

Variants of: B1
Test: self-cleavage, relative activity (ratio to wild type); higher = more cleavage; in vitro, sequencing; the parent is a self-cleaving ribozyme

Row | Variant | self-cleavage
1 | GGCAGAGCUCAACACACCGUGGAAAAGUGGUUAUGGCUACACUGCU | 0.01
2 | GGCAGAGCUCAACACACCGUGGGAAAGUGGCUGUGGCUAGACUGCU | 0.56
3 | GGCAGAGCUCAACACACCGUGGGAAAGUGUCUGUGGUUAGACUGCC | 0.05
4 | GGCAGAGCUCAACACACCGUGGUAAAGUGGGUGUGGCUAGACUGCC | 0.08
5 | GGCAGAGCUCAACACACCGUGGUAAAGUGGCUGUUGCUGGACUGCC | 0.01
6 | GGCAGAGCUCAACACACCGUGGUAAAGUGGCUGAGGCUAGACUGCC | 0.03
7 | GGCAGAGCUCAACACACCGUGGCAAAGUGGAUGUGGCUAGGCUUCC | 0.01
8 | GGCAGAGCUCAACACACCGUGGCAAAGUGGAUGUGUCUAGACUGCC | 0.02
9 | GGCAGAGCUCAACACACCGUGGCAAAGUGGAUGUGGCUAGACUUCC | 0.01
10 | GGCAGAGCUCAACACACCGUGGCAAAGUGGUUGUGGCUAGACUGGC | 0.04
11 | GGCAGAGCUCAACACACCGUGGCAAAGUGGUUGUGGCUAGACUGCU | 0.01
12 | GGCAGAGCUCAACACACCGUGGCAAAGUGGCUGUGGAUAGCCUGCC | 0.04
13 | GGCAGAGCUCAACACACCGUGGCAAAGUGGCUGUGGAUAGACCGCC | 0.04
14 | GGCAGAGCUCAACACACCGUGGCAAAGUGGCUGUGGUUAGACUGCG | 0.01
15 | GGCAGAGCUCAACACACCGUGGCAAAGUGGCUGUGGCUAGAAUCCC | 0.03
16 | GGCAGAGCUCAACACACCAUGCCAAAGUGGCUGUGGCUAGACUGCC | 0.73
17 | GGCAGAGCUCAACACACCAUGUCAAAGUGGCUGUUGCUAGACUACC | 0.02
18 | GGCAGAGCUCAACACACCAUGGCAAAGUGGCGGUGGCUAGACUGCC | 2.22
19 | GGCAGAGCUCAACACACCCUGGCACAGUGGCUGUGGCUAGACUGCC | 0.55

Row | Variant | self-cleavage
20 | GGCAGAGCUCAACACACCCUGGCAAAGUGGCUGUGGCUAGACUGGC | 0.31
21 | GGCAGAGCUCAACACACCCUAGCAAAGUGGCUGUGGCUAGACUGCC | 0.23
22 | GGCAGAGCUCAACACACCCUGUCAAAGUGGCUGUUGCUAGACUGCC | 0.06
23 | GGCAGAGCUCAACACACCCUGGCAAACUGGCUGUGGCUAGACUGCU | 0.17
24 | GGCAGAGCUCAACACACCCUGGCAAAGUGGCUGUGGCUAUACUGCC | 0.05
25 | GGCAGAGCUCAACACACCUUGGCACAGUGGCUGAGGCAAGACUGCC | 0.01
26 | GGCAGAGCUCAACACACCGUAGCACAGUGGCUGUGGCUAGACUGCC | 0.53
27 | GGCAGAGCUCAACACACCGUAGCACAGUGGGUGAGGCUAGACUGCC | 0.04
28 | GGCAGAGCUCAACACACCGUAGCAAAGUGGUUGUGGCUAUACGGCC | 0.02
29 | GGCAGAGCUCAACACACCGUCGCAAAGUGGCUGUGGCUAGACUGUC | 2.33
30 | GGCAGAGCUCAACACACCGUCGCAAAGUGGCUGUUGCUAGACUGCC | 0.03
31 | GGCAGAGCUCAACACACCGUUGCAUAGUGGCUGUGGCUAGACUGCC | 1.14
32 | GGCAGAGCUCAACACACCGUUGCAAAGUGGCUGUGGCUAGACUGCA | 0.18
33 | GGCAGAGCUCAACACACCGUUGCAAAAUGGCUGUGGCUACACUGCC | 0.02
34 | GGCAGAGCUCAACACACCGUUGCAAAUUGGCUGUGGCUAGGCUGCC | 0.17
35 | GGCAGAGCUCAACACACCGUUGCAAAGUGCGUGUGGCUAGACUGCC | 0.06
36 | GGCAGAGCUCAACACACCGUGACAAACUGGCUGUAGCUAGACUGCC | 0.12
37 | GGCAGAGCUCAACACACCGUGCCAAAGUGGCUGUGGCUAGUUUACC | 0.02
38 | GGCAGAGCUCAACACACCGUGCCAAAGUGGGUGUGGCUAGACUGCC | 0.41

Row | Variant | self-cleavage
39 | GGCAGAGCUCAACACACCGUGCCAAAGUGGCUGUCGCUACACUGCC | 0.01
40 | GGCAGAGCUCAACACACCGUGCCAAAGUGGCUGUGGCUAGACGGCC | 0.01
41 | GGCAGAGCUCAACACACCGUGUCCAAGUGGCUGUGGCUCGACUGCC | 0.11
42 | GGCAGAGCUCAACACACCGUGUCAAAGUGGAUGUGGCUAGACUGCC | 0.77
43 | GGCAGAGCUCAACACACCGUGUCAAAGUGGAUUUGGAUAGACAGCC | 0.03
44 | GGCAGAGCUCAACACACCGUGUCAAAGUGCCUGUGGCUAGACUGCC | 0.08
45 | GGCAGAGCUCAACACACCGUGUCAAAGUGGCUGUGACUAGACUGCC | 0.09
46 | GGCAGAGCUCAACACACCGUGUCAAAGUGGCCGUAGCUAGACUGCC | 0.02
47 | GGCAGAGCUCAACACACCGUGGCAAAAUGUCUGUGGCUAGACUGCC | 0.49
48 | GGCAGAGCUCAACACACCGUGGCAAAAUGGCUCUGGCUAGACUGCC | 0.02
49 | GGCAGAGCUCAACACACCGUGGCAAACUGGCUGUGGCUACACUGCC | 0.04
50 | GGCAGAGCUCAACACACCGUGGCAAAUUGGUUGUGGCUAGAUGGCC | 0.01
51 | GGCAGAGCUCAACACACCGUGGCAAAUUCGCUGUGGCUAGACUGCC | 0.04
52 | GGCAGAGCUCAACACACCGUGGCAAAUUGGCUGUAGCUAGACUGCC | 0.08
53 | GGCAGAGCUCAACACACCGUGGCAAAGUAGCUGUGGCUAGACUGUC | 0.19
54 | GGCAGAGCUCAACACACCGUGGCAAAGUAGCUGUGUUUAGACUGCC | 0.05
55 | GGCAGAGCUCAACACACCGUGGCAAAGUCGUUGUAGCUAGACUGCC | 0.06
56 | GGCAGAGCUCAACACACCGUGGCAAAGUCGCUGUGGAUAGACUCCC | 0.06

Source: the RNAGym collection of RNA variant scans (doi:10.7554/elife.90254)
